Data published in PubChem BioAssay AID1347073 (National Center for Advancing Translational Sciences (NCATS), 2019).
Out of some 45,000 compounds screened, about 200 (0.44%) were called active. The inconclusive results got no clear call from the source; some entries with a clear call stand among them for comparison. The call rests on the fitted dose curve; in most records, active means well fitted activation curve with a large enough effect; inconclusive means small, poorly fitted or top-dose-only effect; inactive means no such curve, though single readings can be large or run the other way. A potency beside an inconclusive call is a rough fit, not a confirmed value.

Assay: qHTS of TDP-43 Inhibitors: NCGC Sytravon Library Screen; further: nearly all actives have a fitted effect of over 55% in size; on growth rescue (activation): 0% is about no effect
Conditions: yeast TDP-43 toxicity rescue, BacTiter-Glo growth, 24 h; growth rescue (activation): at 46.1 µM (top of the series)
How it was run: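 TDP-43-expressing yeast, pregrown in raffinose, seeded at OD600 0.02 in galactose medium with compound for 24 hr at 30 deg C. Growth read by BacTiter-Glo luminescence, so rescue of toxicity appears as activation.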
Potency means the concentration at half of the fitted maximal effect; tags describe the fitted curve by direction and shape.

Structure (SMILES)	Potency	growth rescue (activation)
O=C(Nc1ccc(Cl)cc1)C1Cc2c(-c3ccccc3)ccnc2O1 (stereo unspecified)	inconclusive: 35.5 µM [activator, single point]	
CN1CCN(c2ccc(-c3cccc4nccn34)cn2)CC1		inactive: 1.51%
COc1cc(-c2coc3c(C(=O)NCc4cccc(Cl)c4)cccc23)ccc1O		inconclusive: 92% [activator]
C/C(=N\Nc1nc2ccccc2nc1C)c1ccccc1O	inconclusive: 20 µM [activator, partial curve, poor fit]	
CCCCOc1cccc(C(=O)N(Cc2sccc2C)C2CCS(=O)(=O)C2)c1 (stereo unspecified)		inactive: 12%
CCOc1ccc(CN(C)C(=O)c2cc3ccccc3o2)cc1OC	inconclusive: 15.8 µM [activator, partial curve, poor fit]	
O=C(COC(=O)c1ccc([N+](=O)[O-])o1)NC12CC3CC(CC(C3)C1)C2		inactive: 9.8%
N/C(=N\OC(=O)Cc1ccccc1)c1ccc(Br)cc1	inconclusive: 28.2 µM [activator, single point]	
O=C(NC1CC1)C(Cc1ccccc1)NS(=O)(=O)c1ccccc1F (stereo unspecified)		inactive: 5.63%
Cc1cc2ccccn2c1C(=O)c1nc(NCc2ccco2)ncc1Cl	inconclusive: 12.6 µM [activator, single point]	
COc1ccc(NS(=O)(=O)c2ccc3oc(SC)nc3c2)cc1	inconclusive: 3.55 µM [activator, partial curve, poor fit]	
CCc1ccc(S(=O)(=O)NC(=S)NC2CCCCC2)cc1	inconclusive: 14.1 µM [activator, single point]	
S=C(NCCc1ccccc1)Nc1ccc(Cl)cc1	inconclusive: 14.1 µM [activator, partial curve, poor fit]	
COc1ccc(NC(=O)CCS(=O)(=O)c2ccc3c(c2)n(C)c(=O)c(=O)n3C)cc1Cl		inactive: 7.84%
O=[N+]([O-])c1ccc(OC(F)F)c(/C=N/n2cnnc2)c1	inconclusive: 15.8 µM [activator, single point]	
CCc1ccc(NC(=O)C(C)OC(=O)CCC(=O)c2cccs2)cc1 (stereo unspecified)	inconclusive: 35.5 µM [activator, single point]	
Nc1c(-c2ccccc2)c(CSc2nc3ccccc3[nH]2)nn1-c1cccc(Cl)c1	inconclusive: 17.8 µM [activator, single point]	
Cc1c(Cl)c([N+](=O)[O-])nn1CC(=O)N1CCN(C23CC4CC(CC(C4)C2)C3)CC1		inconclusive: -47.8% [activator]
CN(C(=O)CSc1ncnc2ccccc12)C1CCCCC1	inconclusive: 17.8 µM [activator, partial curve, poor fit]	
CS/C(=N\S(=O)(=O)c1cccs1)Nc1ccc(F)cc1	inconclusive: 35.5 µM [activator, single point]	
O=C(N/N=C/C(Cl)=C\c1ccccc1)c1ccco1	inconclusive: 10 µM [activator, partial curve]	
COc1cc(OC)cc(C(=O)N[C@H](C(=O)Nc2nc(-c3ccc(F)c(F)c3)cs2)C(C)C)c1		inactive: 1.13%

Structure (SMILES)	Potency	growth rescue (activation)
Cc1nc2scc(C)n2c(=O)c1S(=O)(=O)Nc1ccc(F)cc1	inconclusive: 2.51 µM [activator, partial curve]	
COc1ccc2oc(=Nc3cccc(F)c3)c(C(N)=O)cc2c1	inconclusive: 7.94 µM [activator, partial curve]	
COc1cccc(CNc2nc3cc(-c4csc5ccccc45)sc3c(=O)n2C)c1	inconclusive: 17.8 µM [activator, partial curve, poor fit]	
COc1cccc(NC(=S)N2CCC(c3ccc(C)cc3)C2)c1 (stereo unspecified)	inconclusive: 14.1 µM [activator, single point]	
CCCCC/S(CC1CC1(Cl)Cl)=N\S(=O)(=O)c1ccc(C)cc1 (stereo unspecified)	inconclusive: 10 µM [activator, partial curve]	
O=Cc1ccc(OCc2nnc(-c3ccccc3Br)o2)cc1	inconclusive: 35.5 µM [activator, single point]	
Cc1ccc(C(=O)N[C@H](C(=O)OCC(=O)Nc2cccc(S(N)(=O)=O)c2)C(C)C)cc1	inconclusive: 35.5 µM [activator, single point]	
COc1ccc(NC(=O)COc2ccccc2C#N)c(S(=O)(=O)N2CCCCC2)c1	inconclusive: 35.5 µM [activator, single point]	
COc1ccc(C2CCCN2C(=S)Nc2ccc(C)c(C)c2)cc1OC (stereo unspecified)	inconclusive: 11.2 µM [activator, single point]	
COc1ccc(-c2nnc(SCC(=O)NC3CCCCC3)o2)cc1	inconclusive: 35.5 µM [activator, single point]	
CCOC(=O)C(C)On1c(-c2ccccc2)nc2ccc([N+](=O)[O-])cc21 (stereo unspecified)	inconclusive: 17.8 µM [activator, single point]	
Cc1ccccc1CNC(=O)Cc1csc2ccccc12	inconclusive: 10 µM [activator, partial curve]	
COc1cc(C(=S)N2CCC(Cc3ccccc3)CC2)ccc1OCC(N)=O		inactive: 27.8%
Cc1cccc(OCC(=O)Nc2ccc(NC(=O)c3ccco3)cc2)c1		inactive: 15.2%
O=c1c2ccsc2ncn1Cc1ccc(Cl)cc1	inconclusive: 12.6 µM [activator, single point]	
O=C(Cc1ccc(-c2ccccc2)cc1)OCC(=O)N1CCCC1=O	inconclusive: 20 µM [activator, single point]	
COc1cc(C(=O)Nc2cc(C)nn2-c2ccccc2)cc(OC)c1OC		inconclusive: -36.4% [activator]
O=C(COc1ccccc1)Nc1nc(-c2cccs2)cs1	inconclusive: 2.51 µM [activator, full curve, poor fit]	
Fc1ccc(Nc2cccc3nccnc23)cc1	inconclusive: 14.1 µM [activator, partial curve, poor fit]	
O=C(O)c1ccccc1C(=O)Nc1ccc(-c2csc(-c3ccccc3)n2)cc1	inconclusive: 17.8 µM [activator, single point]	
O=C(Nc1nc(-c2ccccn2)cs1)c1cc2ccccc2o1		inconclusive: -71.9% [activator]
COc1ccc(CCC(=O)O)cc1OC	inconclusive: 14.1 µM [activator, single point]	

Structure (SMILES)	Potency	growth rescue (activation)
NC(=O)N1N=C2/C(=C/c3ccccc3)CCCC2C1c1ccccc1 (stereo unspecified)	inconclusive: 31.6 µM [activator, single point]	
COc1ccc(N2CCN(C(=O)c3[nH]c4ccc(OC)cc4c3C)CC2)cc1	inconclusive: 11.2 µM [activator, partial curve]	
C=CCNc1cc(N2CCCC2)ccc1[N+](=O)[O-]	inconclusive: 11.2 µM [activator, partial curve, poor fit]	
CCC/C(O)=C1\C(=O)CC(C)(C)CC1=Nc1cccc([N+](=O)[O-])c1		inactive: 26.3%
N#Cc1cccn1-c1nccc(-c2cccs2)n1	inconclusive: 11.2 µM [activator, partial curve, poor fit]	
CCN(CC)c1ccc(NC(=O)c2cccc(C)c2)cc1S(=O)(=O)Nc1ccccc1OC	inconclusive: 15.8 µM [activator, single point]	
S=c1[nH]nc(-c2ccco2)n1/N=C/c1ccccc1Cl		inactive: 24.6%
COc1ccc(-c2nnc(SCc3nc4ccccc4s3)n2C(C)C)cc1	inconclusive: 11.2 µM [activator, single point]	
O=C(O)/C=C/c1ccc([N+](=O)[O-])o1	inconclusive: 11.2 µM [activator, partial curve, poor fit]	
Cc1cccc(C(O)(C(=O)NNc2ccc3ccccc3n2)c2cccc(C)c2)c1		inconclusive: 18.6% [activator]
COc1ccc(NC2c3ccccc3C(=O)N2Cc2ccc3c(c2)OCO3)cc1 (stereo unspecified)	inconclusive: 11.2 µM [activator, partial curve, poor fit]	
COc1cc(OC)c(C(=O)NC2CCCc3ccccc32)cc1OC (stereo unspecified)		inconclusive: 31.8% [activator]
Cc1cc(C=O)c(C)n1-c1ccc(NC2CCCC2)c([N+](=O)[O-])c1	inconclusive: 20 µM [activator, partial curve, poor fit]	
CN(c1cccc(Cl)c1)S(=O)(=O)c1cccc(C(=O)Nc2nc3ccccc3[nH]2)c1	inconclusive: 22.4 µM [activator, partial curve, poor fit]	
CN(C)c1ccc(C(=O)/C=C/c2ccccc2)cc1	inconclusive: 5.01 µM [activator, partial curve]	
COc1ccc(F)cc1CSc1nnnn1-c1ccc(O)cc1	inconclusive: 11.2 µM [activator, partial curve, poor fit]	
N#Cc1cccc(-c2csc(C(O)c3ccc(F)cc3)n2)c1 (stereo unspecified)	inconclusive: 11.2 µM [activator, partial curve, poor fit]	
CCNC(=O)NC(C(=O)OC)C12CC3CC(CC(C3)C1)C2 (stereo unspecified)		inactive: 23.1%
Cc1ccc(NC(=O)C2Cc3ccccc3CN2C(=O)c2ccccc2)cc1Cl (stereo unspecified)	inconclusive: 31.6 µM [activator, single point]	
CC(=O)Nc1sc(C)c(C)c1C(=O)OC(C)C	inconclusive: 14.1 µM [activator, single point]	
Cc1ccc(NC(=O)Cn2nnc(-c3nc(-c4ccncc4)no3)c2N)cc1		inactive: 16.3%
CC(C)N(Cc1ccccc1)C(=S)Nc1ccc(OC(F)F)cc1	inconclusive: 17.8 µM [activator, single point]	
